Measured values published in PubChem BioAssay AID652106 (National Center for Advancing Translational Sciences (NCATS), 2013).
Out of some 370,000 compounds screened, about 500 (0.14%) were called active. The inconclusive results got no clear call from the source; some entries with a clear call stand among them for comparison. The call rests on the fitted dose curve; in most records, active means well fitted activation curve with a large enough effect; inconclusive means small, poorly fitted or top-dose-only effect; inactive means no such curve, though single readings can be large or run the other way. A potency beside an inconclusive call is a rough fit, not a confirmed value.

Experiment: qHTS of alpha-syn Inhibitors; further: nearly all actives have a fitted effect of over 65% in size; on growth rescue (activation): % of control where 0% means no effect
Settings: Yeast expressing alpha-synuclein, BacTiter-Glo, 24 h; Potency: growth rescue unless noted; growth rescue (activation): at 46.1 µM (top of the series) unless noted
Summary of the method: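 Galactose-induced alpha-syn yeast (OD600=0.02, raffinose-pregrown) + pinned cpd, 24 hr, 30 deg C; growth by BacTiter-Glo luminescence. Growth restoration scores as activation.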
Potency means the concentration at half of the fitted maximal effect; tags describe the fitted curve by direction and shape.

SMILES | Potency | growth rescue (activation)
CCCCCCCCCCS(=O)(=O)N/N=C/c1ccc(O)cc1 | inconclusive: 17.8 µM [activator, single point] | –
COc1cc(NC(=O)c2ccccc2)c(OC)cc1NC(=O)CN1CCCCC1 | inconclusive: 5.62 µM [activator, single point] | –
O=C(NCC12CC3CC(CC(C3)C1)C2)c1cc2nc(-c3ccccc3)cc(C(F)(F)F)n2n1 | inconclusive: 35.5 µM [activator, single point] | –
Fc1ccc(-c2cc3nc4c(c(N5CCOCC5)n3n2)CCCC4)cc1 | – | inactive: -38.9%
CN(/N=C/c1ccncc1)c1cnc2ccccc2n1 | inconclusive: 22.4 µM [activator, single point] | –
CC1=CC(C)(C)N(C(=O)CSc2nnc(-c3ccccc3)o2)c2ccc(C)cc21 | inconclusive: 3.16 µM [activator, single point] | –
COc1ccc(NC(=O)NCCc2ccc(Cl)cc2)cc1OC | inconclusive: 3.55 µM [activator, single point] | –
Cc1c2ccncc2cc2c1[nH]c1ccccc12 | active: 10 µM | –
CC1(C)CSC(=NCCc2ccccc2)N1 | inconclusive: 6.31 µM [activator, single point] | –
O=C(CN1CCN(C(=O)C2COc3ccccc3O2)CC1)Nc1ccc(F)cc1 (centres undefined) | inconclusive: 25.1 µM [activator, single point] | –
COc1ccccc1N1CCN(C(=O)COc2cc(C)cc3oc(=O)cc(C)c23)CC1 | – | inactive: -5.24%
Cc1ccc(Nc2nc(N)nc(CCl)n2)c(C)c1 | – | inactive: -6.72%
CCCCc1cc(=O)oc2c(C)c(OCC(=O)N3CCCC3)ccc12 | – | inactive: 6.12%
O=C(O)c1cncc(C#CCC2CCCCC2)c1 | – | inactive: 2.61%
Cn1c(=O)c(S(=O)(=O)C(C)(C)C)c(O)c2ccccc21 | – | inactive: 16.5%
CC(=O)OC(c1nc2ccccc2c(=O)n1C1CC2(OC1=O)c1ccccc1N1C(=O)C(C)(C)N(O)C12)C(C)C (centres undefined) | – | inactive: -3.2%
CC=CCn1c(SCCCc2ccccc2)nc2c1c(=O)[nH]c(=O)n2C | inconclusive: 31.6 µM [activator, single point] | –
COC(=O)[C@]12CCCCC=C1N(CCc1ccc(OC)c(OC)c1)C(=O)[C@H](CC(=O)NCc1ccccc1)C2 | – | inactive: 1.38%
CC(C)C(=O)Nc1nc2cc3c(cc2s1)OCO3 | inconclusive: 31.6 µM [activator, single point] | –
Cc1oc2c(c(C)cc3oc(=O)c(CC(=O)N[C@@H](C)C(=O)O)c(C)c32)c1C | – | inactive: 1.97%
CCOc1ccc(NCc2nnc(SCc3ccc(Cl)cc3)n2-c2ccccc2)cc1 | inconclusive: 22.4 µM [activator, single point] | –
CNc1c(Br)cc(/C=C2\C=C(C(O)c3cc(Br)c(NC)c(Br)c3)c3ccccc32)cc1Br (centres undefined) | – | inactive: -0.439%
COC(=O)C1C(=O)N(S(=O)(=O)c2ccc([N+](=O)[O-])cc2)c2ccccc21 (centres undefined) | inconclusive: 20 µM [activator, single point] | –

SMILES | Potency | growth rescue (activation)
CCCN(CCC)CCNC(=O)c1cc2c(=O)n(C)c3ccccc3c2n1C | active: 11.2 µM | –
O=C(OCC(=O)N1CCN(C(=O)c2ccco2)CC1)c1cc(-c2ccc(F)cc2)nc2ccccc12 | inconclusive: 17.8 µM [activator, single point] | –
CCc1ccc(-c2cc(C)no2)cc1S(=O)(=O)Nc1ccccn1 | – | inactive: -5.2%
N#Cc1nccnc1S(=O)(=O)c1cccs1 | – | inactive: -5.36%
Cc1cc(F)ccc1-c1cc(C(=O)NCc2ccco2)[nH]n1 | inconclusive: 31.6 µM [activator, single point] | –
CC(C)c1ccc(NC(=O)CCS(=O)(=O)c2cccc3nonc23)cc1 | inconclusive: 5.62 µM [activator, single point] | –
C(=Nc1ccc(/C=C/c2ccnc3ccccc23)cc1)c1cc2c3c(c1)CCCN3CCC2 | – | inactive: -1.08%
Cc1cccc(-n2c(Cc3ccccc3)nnc2SCc2ccc([N+](=O)[O-])cc2)c1 | inconclusive: 35.5 µM [activator, single point] | –
Cc1ccc(-c2nc(C(=O)NCC3CCCO3)cc3c2[nH]c2ccccc23)cc1 (centres undefined) | inconclusive: 35.5 µM [activator, single point] | –
CCOc1cc2sc(N3CCC(C(=O)NCCCN4CCCC4=O)CC3)nc2cc1Br | – | inactive: -7.2%
CC1=C(C(=O)N(C(C)C)C(C)C)CC(CC(=O)NCCCN(C)C)C(=O)N1CCC1=CCCCC1 (centres undefined) | inconclusive: 5.62 µM [activator, single point] | –
CC(=O)N[C@@H]1C=C[C@@H](CC(=O)NCc2ccc(Cl)cc2)O[C@@H]1CO | inconclusive: 5.62 µM [activator, single point] | –
Cc1ccc(N2C(=O)CSC23C(=O)N(CC(=O)NC2CCCCC2)c2ccccc23)cc1C (centres undefined) | inconclusive: 35.5 µM [activator, single point] | –
N#CC(OC(=O)c1ccccc1)c1ccccc1 (centres undefined) | inconclusive: 5.62 µM [activator, single point] | –
O=C(CCCN1C(=O)/C(=C\c2ccccc2)SC1=S)Nc1ccc(O)cc1 | inconclusive: 35.5 µM [activator, single point] | –
O=C(CSc1nc2ccccc2n1CCc1ccccc1)c1ccc(O)c(O)c1 | inconclusive: 12.6 µM [activator, single point] | –
CCCc1cc(C(=O)N(C2CCCCC2)C2CCCCC2)no1 | inconclusive: 5.62 µM [activator, single point] | –
Cc1ccc(C)c(N2CCN(C(=O)CC3Sc4ccccc4NC3=O)CC2)c1 (centres undefined) | inconclusive: 14.1 µM [activator, single point] | –
Cc1c(Cl)c([N+](=O)[O-])nn1CC(=O)NCCCN1CCOCC1 | inconclusive: 35.5 µM [activator, single point] | –
C/C(=N\Nc1ccc2nncn2n1)c1ccc(Cl)s1 | inconclusive: 20 µM [activator, single point] | –
COc1cc(C(=O)Nc2sc(C(=O)N3CCOCC3)c(C)c2C#N)cc(OC)c1OC | inconclusive: 5.62 µM [activator, single point] | –
CC(C)Cc1ccc(C(C)C(=O)Nc2cccnc2)cc1 (centres undefined) | inconclusive: 5.01 µM [activator, single point] | –
Cc1cc(C)cc(Nc2c3c(nc4ncnn24)CCC3)c1 | inconclusive: 25.1 µM [activator, single point] | –

SMILES | Potency | growth rescue (activation)
Cc1cc(-c2ccc(S(=O)(=O)N3CCN(c4cccc(C(F)(F)F)c4)CC3)s2)on1 | inconclusive: 5.62 µM [activator, single point] | –
O=[N+]([O-])c1cc(-c2nnc(Nc3ccccc3)c3ccccc23)ccc1N1CCOCC1 | inconclusive: 12.6 µM [activator, partial curve] | –
COc1cccc(C(O)c2nc(/C=C/c3ccccc3)cs2)c1 (centres undefined) | inconclusive: 15.8 µM [activator, single point] | –
COc1c(C)cc(Br)cc1C(=O)Nc1cccc(-c2nc3ncccc3o2)c1 | – | inactive: 0.895%
Cc1onc(-c2c(Cl)cccc2Cl)c1C(=O)N=C(N)N1CC(C)OC(C)C1 (centres undefined) | inconclusive: 31.6 µM [activator, single point] | –
CC(C)C1OC(CCc2ccccc2)Cc2[nH][nH]c(=O)c21 (centres undefined) | – | inactive: 1.52%
OC[C@@H]1CN(Cc2ccc(Cl)cc2)C[C@H](n2cnc3c(N4CCN(c5ccccc5)CC4)ncnc32)O1 | inconclusive: 22.4 µM [activator, single point] | –
COc1ccc(OC)c(NC(=O)C23CCC(C)(C(=O)O2)C3(C)C)c1 (centres undefined) | inconclusive: 31.6 µM [activator, single point] | –
CC1=CC(C)(C)N(S(=O)(=O)c2ccc(C)cc2)c2ccccc21 | inconclusive: 11.2 µM [activator, single point] | –
O=C(CC(Nc1ccccc1Cl)C(=O)O)c1ccccc1 (centres undefined) | inconclusive: 28.2 µM [activator, single point] | –
N#CC(c1ccccc1)C(CC(=NO)c1ccccc1)c1ccccc1 (centres undefined) | inconclusive: 35.5 µM [activator, single point] | –
CCc1cccc(NS(=O)(=O)c2ccc3c(c2)N(C)CCO3)c1 | inconclusive: 20 µM [activator, single point] | –
CCOc1ccc(NC(=O)CCN2C(=O)c3ccccc3C2=O)cc1 | inconclusive: 28.2 µM [activator, single point] | –
Cc1cn(C2OC(COC(=O)c3ccccc3)C(OC(=O)c3ccccc3)C2OC(=O)c2ccccc2)c(=O)[nH]c1=O (centres undefined) | – | inactive: 22.6%
O=c1[nH]c(CSc2cccc[n+]2[O-])nc2ccccc12 | inconclusive: 20 µM [activator, single point] | –
COc1cc(OC)cc(-c2nnc(SCC(=O)N3CCCc4ccccc43)o2)c1 | – | inactive: 18.4%
CC(C)N(Cc1nc(-c2ccccc2)no1)S(=O)(=O)c1ccccc1 | – | inactive: 5.77%
C=CCN(CC=C)C(=S)NC(=O)c1ccc(OC)c(Br)c1 | inconclusive: 31.6 µM [activator, single point] | –
Cc1[nH]c2ccccc2c1CN1CCN(c2ccccn2)CC1 | inconclusive: 35.5 µM [activator, single point] | –
CN(C)CCCNc1nccc(N2CCN(C)CC2)n1 | – | inactive: -2%
COc1cc(C(=O)NCC2CCCO2)ccc1OCc1ccc(Cl)cc1 (centres undefined) | – | inconclusive: 40.5% [activator] [at 1.84 µM]
Cc1ccc(S(=O)(=O)Nc2ccc3c(c2)C(=O)N([C@H](C)CO)C[C@H](C)[C@H](CN(C)C(=O)Nc2cccc4ccccc24)OCCCC[C@@H](C)O3)cc1 | – | inactive: 6.47%
O=C(Nc1cccc(S(=O)(=O)Nc2ccc(Cl)cc2)c1)c1ccccn1 | inconclusive: 11.2 µM [activator, partial curve] | –
